Here are results for 28 compounds from the supplement of paper PMC4604168 (melanoma cell lines).

Some test systems named below: 501Mel; A101D; A2058; A375.
Common to all, as to assay: cell count relative to DMSO control; melanoma cells; higher = more viable cells
What all share (details): library dose: standard library concentration; 72 h

The list shows a part of the results. Repeats are few or missing, and single values can be far off.
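Further: cells treated in 1,536-well plates, then fixed and DAPI-stained, with nuclei counted from automated high-throughput microscope images.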

Turning to `Cn1cncc1[C@@](N)(c1ccc(Cl)cc1)c1ccc2c(c1)c(-c1cccc(Cl)c1)cc(=O)n2C` [tipifarnib] + CCN(CC)CCCCNc1ncc2cc(-c3cc(OC)cc(OC)c3)c(NC(=O)NC(C)(C)C)nc2n1 [PD173074] (first compound 0.05 µM, partner dose 0.5 µM), the cell count was determined as 85.7% in the assay on 501Mel, 75.6% in the assay on A101D, 84.1% in the assay on A2058 and 109% with A375.

For `O=c1[nH]nc(Sc2ncc([N+](=O)[O-])s2)n1-c1ccc2c(c1)OCCO2` + O=C1NC(=O)/C(=C/c2ccc(-c3ccc(F)cc3O)o2)S1 [AS252424] (first compound 1 µM, partner dose 5 µM), the cell count was found to be 101% in the assay on 501Mel, 126% with A101D, 110% in the assay with A2058 and 123% with A375.

As to `COc1cc(Nc2ncc(F)c(Nc3ccc4c(n3)NC(=O)C(C)(C)O4)n2)cc(OC)c1OC` [Tamatinib] + O=C(O)C(=O)Nc1sc2c(c1C(=O)O)CCNC2 [TCS401] (first compound 2 µM, partner dose 8.33333 µM), the cell count was determined as 81.1% in the assay with 501Mel, 53.1% with A101D, 88.9% in the assay on A2058 and 150% in the assay with A375.

For the compound `O=C(Nc1cccc(Cl)c1)Nc1ncc(CCNc2ncnc3ccsc23)s1` + O=c1cc(-c2cccc3c2Sc2ccccc2S3)oc(N2CCOCC2)c1 [KU55933] (first compound 0.004 µM, partner dose 5 µM), the cell count worked out at 78.7% with 501Mel, 88.8% in the assay with A101D, 92% in the assay on A2058 and 119% in the assay with A375.

`O=C(O)c1ccc(-c2c[nH]c3ncc(-c4ccccc4)cc23)cc1C1CCCC1` + COc1cc2ncnc(Nc3ccc(Oc4ccccc4)cc3)c2cc1OC [SrcI1] (first compound 0.8 µM, partner dose 10 µM): the cell count amounted to 74% in the assay with 501Mel, 65% in the assay with A101D, 95.7% in the assay on A2058 and 167% in the assay with A375.

`O=C(Nc1cccc(Cl)c1)Nc1ncc(CCNc2ncnc3ccsc23)s1` + c1cc(-c2cnn3cc(-c4ccc(OCCN5CCCCC5)cc4)cnc23)ccn1 [Dorsomorphin] (first compound 0.004 µM, partner dose 2 µM): the cell count with 501Mel is 73.2%; with A101D, 106%; in the assay with A2058 it was 52.9%; with A375, 54.3%.

Take `O=C(Nc1cccc(Cl)c1)Nc1ncc(CCNc2ncnc3ccsc23)s1` + O=C(Nc1ccccc1)c1cc([N+](=O)[O-])ccc1Cl [GW9662] (first compound 0.004 µM, partner dose 10 µM): the cell count turned out to be 59.9% with 501Mel, 63.8% in the assay on A101D, 59% in the assay with A2058 and 97.8% with A375.

Turning to `Cn1cncc1[C@@](N)(c1ccc(Cl)cc1)c1ccc2c(c1)c(-c1cccc(Cl)c1)cc(=O)n2C` [tipifarnib] + O=c1cc(-c2cccc3c2Sc2ccccc2S3)oc(N2CCOCC2)c1 [KU55933] (first compound 0.05 µM, partner dose 5 µM), the cell count in the assay on 501Mel came to 80.6%; with A101D, 65.7%; with A2058, 83.1%; with A375, 95.1%.

Consider `O=c1[nH]nc(Sc2ncc([N+](=O)[O-])s2)n1-c1ccc2c(c1)OCCO2` + COC(=O)c1sccc1S(=O)(=O)Nc1ccc(Nc2ccccc2)cc1OC [GSK0660] (first compound 1 µM, partner dose 5 µM), for which the cell count in the assay on 501Mel is 80.1%; in the assay with A101D, 86.8%; with A2058 it was 84.6%; in the assay on A375, 86.9%.

As for `CC1(C)NC(=O)N(c2ccc([N+](=O)[O-])c(C(F)(F)F)c2)C1=O` [nilutamide] + COc1ccc(-c2ccc3c(N4CCOCC4)nc(N4C[C@@H](C)O[C@@H](C)C4)nc3n2)cc1CO [KU0063794] (first compound 5 µM, partner dose 0.1 µM), the cell count with 501Mel amounted to 103%; with A101D, 104%; in the assay on A2058, 97.3%; in the assay with A375, 101%.

For `O=C(O)c1ccc(-c2c[nH]c3ncc(-c4ccccc4)cc23)cc1C1CCCC1` + c1cc(-c2cnn3cc(-c4ccc(OCCN5CCCCC5)cc4)cnc23)ccn1 [Dorsomorphin] (first compound 0.8 µM, partner dose 2 µM), the cell count in the assay on 501Mel was 64.7%; in the assay on A101D it was 84.2%; with A2058, 76.1%; with A375, 101%.

`O=C(O)c1ccc(-c2c[nH]c3ncc(-c4ccccc4)cc23)cc1C1CCCC1` + COc1ccc2c(c1)CCC1C2CCC2(C)C(NCCCCCCN3C(=O)C=CC3=O)CCC12 [U73122] (first compound 0.8 µM, partner dose 2 µM): the cell count amounted to 110% with 501Mel, 55.3% in the assay with A101D, 81.4% with A2058 and 78.2% with A375.

In the case of `C[C@@H]1CCN(C(=O)CC#N)C[C@@H]1N(C)c1ncnc2[nH]ccc12` + O=C1NC(=O)/C(=C/c2ccc(-c3ccc(F)cc3O)o2)S1 [AS252424] (first compound 5 µM, partner dose 5 µM), the cell count with 501Mel amounted to 80.4%; with A101D it was 95.1%; in the assay with A2058 it was 103%; with A375, 157%.

On to `CC1(C)NC(=O)N(c2ccc([N+](=O)[O-])c(C(F)(F)F)c2)C1=O` [nilutamide] + CCCCCCCCCCCC1=C(O)C(=O)C=C(O)C1=O [Embelin] (first compound 5 µM, partner dose 6 µM), for which the cell count in the assay with 501Mel came to 79.9%; with A101D, 82.2%; in the assay with A2058, 82.7%; in the assay with A375 it was 95.1%.

As for `O=C(Nc1cccc(Cl)c1)Nc1ncc(CCNc2ncnc3ccsc23)s1` + O=C(O)C(=O)Nc1sc2c(c1C(=O)O)CCNC2 [TCS401] (first compound 0.004 µM, partner dose 8.33333 µM), the cell count in the assay with 501Mel turned out to be 79.8%; in the assay on A101D, 85.9%; in the assay on A2058 it was 71.1%; in the assay on A375, 173%.

With `C[C@@H]1CCN(C(=O)CC#N)C[C@@H]1N(C)c1ncnc2[nH]ccc12` + CCc1ccc(CCOc2ccc(CC3SC(=O)NC3=O)cc2)nc1 [pioglitazone] (first compound 5 µM, partner dose 10 µM), the cell count was determined as 122% in the assay with 501Mel, 111% in the assay on A101D, 101% with A2058 and 96.7% in the assay with A375.

As for `O=C(Nc1cccc(Cl)c1)Nc1ncc(CCNc2ncnc3ccsc23)s1` + Oc1cc(-c2nc(-c3ccccc3)[nH]c2-c2ccncc2)ccc1Cl [L779450] (first compound 0.004 µM, partner dose 1 µM), the cell count is 74.3% in the assay with 501Mel, 72.9% in the assay with A101D, 83.4% in the assay with A2058 and 78.9% in the assay on A375.

For the compound `CC1(C)NC(=O)N(c2ccc([N+](=O)[O-])c(C(F)(F)F)c2)C1=O` [nilutamide] + CC(C)CCN1c2nc(Nc3cc(F)c(O)c(F)c3)ncc2N(C)C(=O)C1C [BID1870] (first compound 5 µM, partner dose 1 µM), the cell count came to 65.8% in the assay with 501Mel, 67.8% in the assay on A101D, 81.9% in the assay with A2058 and 87.1% in the assay on A375.

`O=c1[nH]nc(Sc2ncc([N+](=O)[O-])s2)n1-c1ccc2c(c1)OCCO2` + CCN(CC)CCCCNc1ncc2cc(-c3cc(OC)cc(OC)c3)c(NC(=O)NC(C)(C)C)nc2n1 [PD173074] (first compound 1 µM, partner dose 0.5 µM): the cell count is 97% with 501Mel, 84.6% in the assay on A101D, 105% with A2058 and 85.3% in the assay on A375.

`Cn1cncc1[C@@](N)(c1ccc(Cl)cc1)c1ccc2c(c1)c(-c1cccc(Cl)c1)cc(=O)n2C` [tipifarnib] + CC(C)CCN1c2nc(Nc3cc(F)c(O)c(F)c3)ncc2N(C)C(=O)C1C [BID1870] (first compound 0.05 µM, partner dose 1 µM): the cell count with 501Mel stood at 54.5%; in the assay with A101D, 78%; with A2058 it was 61.3%; in the assay on A375, 84.6%.

As to `Cn1cncc1[C@@](N)(c1ccc(Cl)cc1)c1ccc2c(c1)c(-c1cccc(Cl)c1)cc(=O)n2C` [tipifarnib] + O=C1NC(=O)/C(=C/c2ccc(-c3ccc(F)cc3O)o2)S1 [AS252424] (first compound 0.05 µM, partner dose 5 µM), the cell count worked out at 62.6% in the assay on 501Mel, 77.3% in the assay on A101D, 83.7% with A2058 and 94.4% in the assay with A375.

Consider `O=C(Nc1cccc(Cl)c1)Nc1ncc(CCNc2ncnc3ccsc23)s1` + O=S(=O)(c1ccccc1)N(CC(F)(F)F)c1ccc(C(O)(C(F)(F)F)C(F)(F)F)cc1 [T0901317] (first compound 0.004 µM, partner dose 7 µM), for which the cell count was found to be 53.1% with 501Mel, 70.4% with A101D, 76.1% in the assay on A2058 and 76.5% in the assay on A375.

As to `CC1(C)NC(=O)N(c2ccc([N+](=O)[O-])c(C(F)(F)F)c2)C1=O` [nilutamide] + c1cc(-c2cnn3cc(-c4ccc(OCCN5CCCCC5)cc4)cnc23)ccn1 [Dorsomorphin] (first compound 5 µM, partner dose 2 µM), the cell count was found to be 61.6% with 501Mel, 67% with A101D, 67.5% with A2058 and 97.8% in the assay with A375.

As for `O=C(Nc1cccc(Cl)c1)Nc1ncc(CCNc2ncnc3ccsc23)s1` + COC(=O)c1sccc1S(=O)(=O)Nc1ccc(Nc2ccccc2)cc1OC [GSK0660] (first compound 0.004 µM, partner dose 5 µM), the cell count in the assay with 501Mel came to 79.1%; in the assay on A101D, 86.5%; with A2058, 76.2%; with A375 it was 88.5%.

`COc1cc(Nc2ncc(F)c(Nc3ccc4c(n3)NC(=O)C(C)(C)O4)n2)cc(OC)c1OC` [Tamatinib] + COc1ccc2c(c1)CCC1C2CCC2(C)C(NCCCCCCN3C(=O)C=CC3=O)CCC12 [U73122] (first compound 2 µM, partner dose 2 µM): the cell count in the assay on 501Mel was 106%; in the assay with A101D it was 44.8%; in the assay with A2058, 66.8%; in the assay on A375 it was 89.7%.

In the case of `O=C(O)c1ccc(-c2c[nH]c3ncc(-c4ccccc4)cc23)cc1C1CCCC1` + O=S(=O)(c1ccccc1)N(CC(F)(F)F)c1ccc(C(O)(C(F)(F)F)C(F)(F)F)cc1 [T0901317] (first compound 0.8 µM, partner dose 7 µM), the cell count in the assay with 501Mel was found to be 86.6%; with A101D, 79.4%; in the assay with A2058, 88%; in the assay with A375, 75.5%.

For the compound `COc1cc(Nc2ncc(F)c(Nc3ccc4c(n3)NC(=O)C(C)(C)O4)n2)cc(OC)c1OC` [Tamatinib] + CC(C)CCN1c2nc(Nc3cc(F)c(O)c(F)c3)ncc2N(C)C(=O)C1C [BID1870] (first compound 2 µM, partner dose 1 µM), the cell count came out at 64.3% in the assay on 501Mel, 21% in the assay with A101D, 67.3% in the assay on A2058 and 109% in the assay on A375.

Regarding `CC1(C)NC(=O)N(c2ccc([N+](=O)[O-])c(C(F)(F)F)c2)C1=O` [nilutamide] + Oc1cc(-c2nc(-c3ccccc3)[nH]c2-c2ccncc2)ccc1Cl [L779450] (first compound 5 µM, partner dose 1 µM), the cell count with 501Mel turned out to be 73.6%; with A101D, 72.6%; in the assay with A2058, 89.4%; with A375, 91.7%.
